Molecular target: T1, human CD45 receptor on the surface of human T cells (human, UniProt P08575 26-1306)
T1 construct: whole, on cells; also called cellular CD45; leukocyte common antigen
T1 sequence (looked up): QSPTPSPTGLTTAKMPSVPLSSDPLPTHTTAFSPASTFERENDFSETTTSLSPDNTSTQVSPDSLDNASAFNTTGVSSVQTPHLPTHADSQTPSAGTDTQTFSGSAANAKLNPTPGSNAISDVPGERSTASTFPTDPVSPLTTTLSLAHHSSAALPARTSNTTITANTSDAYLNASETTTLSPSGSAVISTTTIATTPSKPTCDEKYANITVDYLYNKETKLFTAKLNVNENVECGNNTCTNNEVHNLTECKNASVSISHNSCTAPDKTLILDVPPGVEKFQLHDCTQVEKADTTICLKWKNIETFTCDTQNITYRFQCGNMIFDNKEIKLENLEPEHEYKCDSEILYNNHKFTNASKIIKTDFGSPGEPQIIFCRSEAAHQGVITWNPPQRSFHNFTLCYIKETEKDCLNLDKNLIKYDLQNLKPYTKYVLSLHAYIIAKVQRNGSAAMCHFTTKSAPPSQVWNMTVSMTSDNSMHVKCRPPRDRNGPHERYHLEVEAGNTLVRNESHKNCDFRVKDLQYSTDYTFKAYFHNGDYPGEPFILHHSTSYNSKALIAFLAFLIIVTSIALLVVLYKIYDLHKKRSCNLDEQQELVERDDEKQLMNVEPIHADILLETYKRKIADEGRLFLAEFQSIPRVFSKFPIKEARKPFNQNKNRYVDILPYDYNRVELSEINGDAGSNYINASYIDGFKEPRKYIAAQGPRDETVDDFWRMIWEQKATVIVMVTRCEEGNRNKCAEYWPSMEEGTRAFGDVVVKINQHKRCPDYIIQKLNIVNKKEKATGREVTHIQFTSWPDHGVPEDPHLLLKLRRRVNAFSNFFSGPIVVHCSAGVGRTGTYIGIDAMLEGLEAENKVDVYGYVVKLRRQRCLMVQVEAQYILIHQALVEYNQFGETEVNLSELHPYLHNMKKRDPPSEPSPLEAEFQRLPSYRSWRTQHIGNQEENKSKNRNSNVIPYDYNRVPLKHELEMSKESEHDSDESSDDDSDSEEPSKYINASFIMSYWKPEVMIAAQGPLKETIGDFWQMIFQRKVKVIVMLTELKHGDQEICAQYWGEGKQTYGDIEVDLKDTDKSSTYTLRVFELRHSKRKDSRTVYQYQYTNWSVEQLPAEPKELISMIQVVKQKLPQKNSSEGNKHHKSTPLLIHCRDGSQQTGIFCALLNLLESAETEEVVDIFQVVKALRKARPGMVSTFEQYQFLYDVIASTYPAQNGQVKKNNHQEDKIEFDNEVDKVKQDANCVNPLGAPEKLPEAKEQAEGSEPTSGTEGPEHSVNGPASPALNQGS
Experiment: flow cytometry of pulsed human CD8 T cells, anti-IL-15 and anti-human IgG staining
Experimental: A mock pulse control in which cells were incubated in a 1:1 mixture of PBS and HBSS was used as a negative control. Cells were then stained for IL-15 using a fluorescently-labeled anti-IL-15 antibody or for IgG domains (Fab or Fc fragments) using a fluorescently-labeled polyclonal antibody that recognizes human IgG light and heavy chains. These antibodies provided detection of both IL-15 or the associated Fab or Fc fragments on the T cell surface. The hBC8(23)-IL15/sushi Fab protein yielded substantially higher levels of IL-15 staining than the IL15/sushi-Fc2 Da or IL15-N72D/sushiL77I-Fc proteins indicating a greater abundance of IL-15 on the cell surface (FIG. 8A). […] The cells were propagated in culture and monitored for IL-15 surface levels for three days following the pulse incubation. IL-15 detection remained above background for hBC8(23)-IL15/sushi Fab, while both of the IL15/sushi-Fc variants were indistinguishable from background one day after the pulse incubation (FIG. 8B).
Measurement of IFM on cell surface. Cells were analyzed by immunofluorescent staining to detect cell surface IFMs following 0, 1, and 3 days in culture following pulse incubation and washes. […]

- binding result: binds
B1: hBC8(23)-IL15/sushi Fab (other)
heavy: EVQLVESGGGLVQPGGSLRLSCAASGFDFSRYWMSWVRQAPGKGLEWIGEINPTSSTINFADSVKGRFTISRDNAKNSLYLQMNSVRDEDTAVYYCARGNYYRYGDAMDYWGQGTLVTVSSASTKGPSVFPLAPSSKSTSGGTAALGCLVKDYFPEPVTVSWNSGALTSGVHTFPAVLQSSGLYSLSSVVTVPSSSLGTQTYICNVNHKPSNTKVDKKVEPKSC
light: EIVLTQSPATLSLSLGERATISCRASKSVSTSGYSYLHWYQQKPGQAPKLLIYLASNRATGVPARFSGSGPGTDFTLTISSLEPEDFATYYCQHSRELPFTFGQGTKLEIKRTVAAPSVFIFPPSDEQLKSGTASVVCLLNNFYPREAKVQWKVDNALQSGNSQESVTEQDSKDSTYSLSSTLTLSKADYEKHKVYACEVTHQGLSSPVTKSFNRGECGGGGSGGGGSGGGGS[about 120 residues cut from this listing]
chain: ITCPPPMSVEHADIWVKSYSLYSRERYICNSGFKRKAGTSSLTECVLNKATNVAHWTTPSLKCIR
notes: also called hBC8Fab-IL15/sushi

Reference: patent publication US20200330514A1 (TORQUE THERAPEUTICS, published 2020)
